# Laboratory results reported in PubChem BioAssay (EPA / NIEHS).
# For part of these data: This list holds what a sample rich in hits left over. Inconclusive results are not listed. This is a selection; strong and weak results do not stand in their true shares. The source holds several records for some structures; these can differ, active in one and inactive in another. Activity calls are given as the source filed them. How the source made its calls, unless noted: active means hit-call score of the fitted dose curve at least 0.9, where 1 is the maximum; inconclusive means response in the unintended direction; inactive means score below 0.9.
# What was measured:
# [1] = read-out: Monocyte Chemoattractant Protein-1 (MCP1), CCL2 (gene 6347); test: BSK_SAg_MCP1: BioMAP Diversity Plus: SAg Assay for Monocyte Chemoattractant Protein-1 (MCP1) Biomarker Activity (AID 2283090; active means hit-call score of the fitted dose curve at least 0.9, where 1 is the maximum; inactive means score below 0.9); conditions: actives raise or lower the signal; primary human HUVEC with PBMC
# Method in brief: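 MCP-1 levels in the endothelial–PBMC SAg co-culture were quantified by ELISA at 24 h post-dosing; both increases and decreases versus DMSO scored. Cytotoxicity monitored by SRB total protein in parallel cultures.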
# [2] = biological target: Glucocorticoid receptor (Homo sapiens) (UniProt P04150); test: NVS_NR_hGR: NovaScreen (NVS) Nuclear Receptor Binding Assay for human Glucocorticoid Receptor (GR) (AID 2283363)
# UniProt P04150, sequence (P04150 whole entry, looked up): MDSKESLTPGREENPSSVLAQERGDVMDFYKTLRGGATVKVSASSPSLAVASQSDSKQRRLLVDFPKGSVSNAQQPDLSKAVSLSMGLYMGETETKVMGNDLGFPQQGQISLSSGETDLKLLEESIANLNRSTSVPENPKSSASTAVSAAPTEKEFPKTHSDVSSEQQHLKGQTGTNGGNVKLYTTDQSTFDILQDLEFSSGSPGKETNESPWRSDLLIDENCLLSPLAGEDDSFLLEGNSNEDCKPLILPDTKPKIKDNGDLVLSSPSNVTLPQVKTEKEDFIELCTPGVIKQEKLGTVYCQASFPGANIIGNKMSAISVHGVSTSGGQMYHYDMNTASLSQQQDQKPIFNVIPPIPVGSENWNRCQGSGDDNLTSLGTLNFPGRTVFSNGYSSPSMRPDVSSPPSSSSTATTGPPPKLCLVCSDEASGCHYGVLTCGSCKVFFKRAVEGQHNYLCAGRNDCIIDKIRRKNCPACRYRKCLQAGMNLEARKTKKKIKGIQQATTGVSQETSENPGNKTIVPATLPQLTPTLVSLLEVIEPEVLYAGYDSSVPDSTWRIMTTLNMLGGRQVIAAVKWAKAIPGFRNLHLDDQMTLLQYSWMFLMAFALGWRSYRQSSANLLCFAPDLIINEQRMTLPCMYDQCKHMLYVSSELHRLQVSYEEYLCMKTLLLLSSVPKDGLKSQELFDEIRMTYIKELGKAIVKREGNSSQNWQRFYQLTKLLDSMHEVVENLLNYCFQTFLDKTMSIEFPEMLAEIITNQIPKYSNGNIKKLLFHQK
# Method in brief: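 Cell-free radioligand displacement assay on extracted human GR, read 16 h after dosing by filter-based scintillation counting. Screened in duplicate at 25 uM, then concentration series for actives; loss of signal versus DMSO baseline.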
# [3] = biological target: Cellular tumor antigen p53 (Homo sapiens) (UniProt P04637); test: TOX21_p53_BLA_p4_ratio: Tox21 HCT-116 p53 Agonism Beta-lactamase Assay, Ratio, Phase 4 (AID 2283601)
# UniProt P04637, sequence (P04637 whole entry, looked up): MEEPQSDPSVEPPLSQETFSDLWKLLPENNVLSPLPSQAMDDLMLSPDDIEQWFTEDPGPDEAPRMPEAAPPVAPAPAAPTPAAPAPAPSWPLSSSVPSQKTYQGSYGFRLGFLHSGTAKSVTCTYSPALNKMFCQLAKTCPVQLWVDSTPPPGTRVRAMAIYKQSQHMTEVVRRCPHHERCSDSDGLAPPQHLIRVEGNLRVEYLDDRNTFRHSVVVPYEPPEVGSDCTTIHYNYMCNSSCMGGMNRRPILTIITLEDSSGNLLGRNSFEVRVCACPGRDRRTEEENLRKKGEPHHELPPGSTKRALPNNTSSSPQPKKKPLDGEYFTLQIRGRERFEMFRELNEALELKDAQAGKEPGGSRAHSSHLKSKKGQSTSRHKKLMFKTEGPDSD
# Method in brief: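 HCT-116 p53 beta-lactamase reporter cells (4000/well) preincubated 5 h, then compound (217-fold dilution of DMSO stock) for 16 h at 37C. CCF4-AM substrate added 2 h at room temperature; 460/530 nm emission ratio fitted upward versus DMSO.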
# [4] = read-out: Plasminogen activator inhibitor-1 (PAI1), SERPINE1 (gene 5054); test: BSK_hDFCGF_PAI1: BioMAP Diversity Plus: hDFCGF Assay for Plasminogen activator inhibitor-1 (PAI1) Biomarker Activity (AID 2283066; active means hit-call score of the fitted dose curve at least 0.9, where 1 is the maximum; inactive means score below 0.9); conditions: actives raise or lower the signal; primary human foreskin fibroblasts
# Method in brief: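 PAI-1 levels, determined by ELISA, served as the endpoint in human foreskin fibroblast cultures exposed to compound for 24 h, with DMSO as baseline.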
# CD69, CD69 (gene 969) = test: BSK_SAg_CD69: BioMAP Diversity Plus: SAg Assay for CD69 Biomarker Activity (AID 2283089; active means hit-call score of the fitted dose curve at least 0.9, where 1 is the maximum; inactive means score below 0.9;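 further: cell surface CD69 protein quantified by ELISA with fluorescence detection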); conditions: actives raise or lower the signal; primary human HUVEC with PBMC
# Method in brief: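 HUVEC co-cultured with PBMC were dosed with chemical, and CD69 was measured by ELISA with fluorescence read-out 24 h later. Bidirectional curve fitting used DMSO as negative control and activity baseline.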
# [5] = read-out: ATP-citrate lyase (ACLY), ACLY (gene 47); test: LTEA_HepaRG_ACLY: Life Technologies and Expression Analysis (LTEA) Assay for ATP-citrate lyase (ACLY) using HepaRG (AID 2283466; active means hit-call score of the fitted dose curve at least 0.9, where 1 is the maximum; inactive means score below 0.9); conditions: actives raise or lower the signal; mRNA level, 48 h
# Method in brief: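 Differentiated HepaRG cells exposed 48 h in serum-free induction medium to eight half-log concentrations up to 100 uM in 0.5% DMSO, duplicates. Transcript measured by Fluidigm TaqMan qRT-PCR, normalized to ACTB, GAPDH, POLR2A; bidirectional fit versus DMSO.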
# CYP2C8 (gene 1558) = test: LTEA_HepaRG_CYP2C8: Life Technologies and Expression Analysis (LTEA) Assay for CYP2C8 using HepaRG (AID 2283483; active means hit-call score of the fitted dose curve at least 0.9, where 1 is the maximum; inactive means score below 0.9); conditions: actives raise or lower the signal; mRNA level, 48 h
# Method in brief: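 Differentiated HepaRG cells in serum-free induction medium exposed 48 h in duplicate to 8 half-log concentrations from 100 uM in 0.5% DMSO. CYP2C8 mRNA by qRT-PCR normalized to ACTB, GAPDH, POLR2A; bidirectional fit versus DMSO.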
# MYC, MYC (gene 4609) = test: LTEA_HepaRG_MYC: Life Technologies and Expression Analysis (LTEA) Assay for MYC using HepaRG (AID 2283518; active means hit-call score of the fitted dose curve at least 0.9, where 1 is the maximum; inactive means score below 0.9); conditions: actives raise or lower the signal; mRNA level, 48 h
# Method in brief: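 Cells are thawed, plated and cultured 48 h, then treated for 48 h with test chemicals (eight half-log concentrations from 100 uM, 0.5% DMSO vehicle). RNA is isolated and MYC expression quantified by qRT-PCR against three housekeeping genes.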
# [6] = biological target: frog Thyroid hormone Receptor alpha (TRa), thra-a (gene 397942) (UniProt P15204); test: ATG_frTRa_XSP1: Attagene TRANS-FACTORIAL Multi-Species (XSP1) HepG2 Assay for frog Thyroid hormone Receptor alpha (TRa) (AID 2283804)
# UniProt P15204, sequence (P15204 whole entry, looked up, the tested form may be a part): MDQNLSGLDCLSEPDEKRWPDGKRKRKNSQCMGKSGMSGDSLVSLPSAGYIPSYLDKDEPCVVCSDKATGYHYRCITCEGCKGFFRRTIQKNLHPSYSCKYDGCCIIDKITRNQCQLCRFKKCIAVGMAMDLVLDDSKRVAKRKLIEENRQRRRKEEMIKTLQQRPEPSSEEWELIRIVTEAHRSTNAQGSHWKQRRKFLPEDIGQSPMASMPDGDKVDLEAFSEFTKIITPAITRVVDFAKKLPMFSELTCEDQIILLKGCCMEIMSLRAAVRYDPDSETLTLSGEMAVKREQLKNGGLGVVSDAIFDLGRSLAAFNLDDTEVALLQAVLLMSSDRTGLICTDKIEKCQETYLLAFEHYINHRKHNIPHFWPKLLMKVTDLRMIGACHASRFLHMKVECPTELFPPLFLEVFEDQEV
# Method in brief: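 HepG2 cells transiently transfected with frog TRa-GAL4 chimeric reporter units, dosed 24 hr with 3 nM 6-alpha-fluorotestosterone present; reporter mRNA quantified by RT-PCR, fluorescent labelling and capillary electrophoresis, gain of signal versus DMSO.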
# [7] = CCTE_Shafer_MEA_acute_AB: CCTE's Alamar Blue Assay for Cytotoxicity in the Neural Acute Assay, Shafer Lab (AID 2284069)
# Method in brief: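 Primary rat cortical neurons on MEA plates, exposed acutely after baseline recording on day 13 or 15 post-plating. Viability by CellTiter Blue resazurin reduction (1:6 reagent dilution), fluorescence 544/590 nm; loss of signal versus DMSO.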
# [8] = BSK_KF3CT_SRB: Viability Assessment in the BioMAP Diversity Plus: KF3CT Assay (AID 2283069; active means hit-call score of the fitted dose curve at least 0.9, where 1 is the maximum; inactive means score below 0.9;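 further: total protein by sulforhodamine B staining as a cytotoxicity measure; read 24 h after compound addition; fitted for both signal gain and loss against DMSO baseline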); conditions: primary human keratinocytes with fibroblasts
# Method in brief: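 Human keratinocyte and foreskin fibroblast co-culture exposed to chemical for 24 h. Total protein measured in parallel cultures by 0.1% sulforhodamine B staining after 10% TCA fixation, read at 560 nm; bidirectional fit relative to DMSO.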
# [9] = read-out: Interleukin-1 alpha (IL1a), IL1A (gene 3552); test: BSK_KF3CT_IL1a: BioMAP Diversity Plus: KF3CT Assay for Interleukin-1 alpha (IL1a) Biomarker Activity (AID 2283070; active means hit-call score of the fitted dose curve at least 0.9, where 1 is the maximum; inactive means score below 0.9); conditions: actives raise or lower the signal; primary human keratinocytes with fibroblasts
# Method in brief: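 Primary human keratinocyte plus foreskin fibroblast co-culture, dosed and measured at 24 h in 96-well plates. IL-1a level quantified by ELISA; bidirectional fit relative to DMSO.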
# [10] = read-out: Transforming growth factor beta 1 (TGFb1), TGFB1 (gene 7040); test: BSK_KF3CT_TGFb1: BioMAP Diversity Plus: KF3CT Assay for Transforming growth factor beta 1 (TGFb1) Biomarker Activity (AID 2283072; active means hit-call score of the fitted dose curve at least 0.9, where 1 is the maximum; inactive means score below 0.9); conditions: actives raise or lower the signal; primary human keratinocytes with fibroblasts
# Method in brief: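 Signal changes in either direction, relative to DMSO, define activity here. TGF-b1 is read by ELISA from a human keratinocyte-fibroblast co-culture 24 h post-dose.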
# [11] = read-out: urokinase plasminogen activator (uPA), PLAU (gene 5328); test: BSK_KF3CT_uPA: BioMAP Diversity Plus: KF3CT Assay for urokinase plasminogen activator (uPA) Biomarker Activity (AID 2283075; active means hit-call score of the fitted dose curve at least 0.9, where 1 is the maximum; inactive means score below 0.9); conditions: actives raise or lower the signal; primary human keratinocytes with fibroblasts
# Method in brief: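 Primary human keratinocyte/foreskin fibroblast co-culture exposed to chemical; uPA measured by ELISA at 24 h. Bidirectional fit versus DMSO, with parallel SRB total-protein staining for cytotoxicity.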
# [12] = biological target: human CYP2A6, CYP2A6 (gene 1548) (UniProt P11509); test: NVS_ADME_hCYP2A6: NovaScreen (NVS) CYP450-related Enzyme Activity (ADME) Assay for human CYP2A6 (AID 2283099)
# UniProt P11509, sequence (P11509 whole entry, looked up): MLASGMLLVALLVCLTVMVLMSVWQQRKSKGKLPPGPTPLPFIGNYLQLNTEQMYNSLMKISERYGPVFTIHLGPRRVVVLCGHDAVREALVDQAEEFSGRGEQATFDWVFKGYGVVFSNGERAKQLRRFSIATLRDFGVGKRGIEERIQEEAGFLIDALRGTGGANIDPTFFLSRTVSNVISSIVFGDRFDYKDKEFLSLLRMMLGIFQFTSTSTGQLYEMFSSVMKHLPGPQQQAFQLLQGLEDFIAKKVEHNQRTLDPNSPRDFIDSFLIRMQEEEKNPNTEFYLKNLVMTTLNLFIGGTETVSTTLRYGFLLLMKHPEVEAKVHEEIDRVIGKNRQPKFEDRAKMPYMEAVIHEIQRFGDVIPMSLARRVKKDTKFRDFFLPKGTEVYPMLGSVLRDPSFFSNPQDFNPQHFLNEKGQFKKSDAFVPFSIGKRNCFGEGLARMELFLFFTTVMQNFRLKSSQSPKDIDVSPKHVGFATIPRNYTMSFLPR
# Method in brief: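 Recombinant human CYP2A6 from insect cells was incubated with chemical for 0.5 h and activity read by fluorescence. Single-concentration duplicates at 10 uM preceded concentration-response testing to 20 uM, with activity referenced to acetonitrile.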
# [13] = TOX21_p53_BLA_p3_viability: Viability Assessment in the Tox21 HCT-116 p53 Agonism Beta-lactamase Assay, Phase 3 (AID 2283593);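 further: cells exposed to compound for 16 h before reading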
# Method in brief: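 HCT116 cells, 4000/well, dosed 5 h after plating by pin transfer (217-fold dilution from DMSO stock) and incubated 16 h at 37C, 5% CO2. Viability read as ATP luminescence with CellTiter-Glo after 30 min at room temperature.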
# [14] = read-out: xenobiotic metabolism (CYP1A2), CYP1A2 (gene 1544); test: CLD_CYP1A2_48hr: CellzDirect (CLD) Gene Expression Assay for xenobiotic metabolism (CYP1A2) at 48 hours (AID 2283703)
# Method in brief: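 Primary human hepatocytes from two donor preparations were dosed daily for two days at multiple concentrations in 0.2% DMSO vehicle. CYP1A2 mRNA was measured at 48 hours by chemiluminescent quantitative nuclease protection assay, with gain of signal fitted versus DMSO and cytotoxicity annotated from morphology.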
# [15] = CCTE_Shafer_MEA_dev_correlation_coefficient_mean: CCTE's Neural Network Formation Assay for Mean Correlation Coefficient, Shafer Lab (AID 2284093; active means hit-call score of the fitted dose curve at least 0.9, where 1 is the maximum; inactive means score below 0.9;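 further: well mean pairwise spike train correlation integrated as AUC over recording days 5 to 12; potency fitted for loss of correlation relative to DMSO vehicle wells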)
# Method in brief: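 Spontaneous activity recorded on days 5, 7, 9 and 12 post-plating; pairwise spike correlations are averaged across active electrodes and collapsed to an area-under-curve. Rat cortical cultures are dosed from plating through 12 days, with compound renewed at media changes.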
# [16] = biological target: human Peripheral-type Benzodiazepine Receptor (PBR), TSPO (gene 706) (UniProt P30536); test: NVS_MP_hPBR: NovaScreen (NVS) Membrane Protein Assay for human Peripheral-type Benzodiazepine Receptor (PBR) (AID 2283331);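 further: hits reduce radioligand binding relative to DMSO baseline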
# UniProt P30536, sequence (P30536 whole entry, looked up): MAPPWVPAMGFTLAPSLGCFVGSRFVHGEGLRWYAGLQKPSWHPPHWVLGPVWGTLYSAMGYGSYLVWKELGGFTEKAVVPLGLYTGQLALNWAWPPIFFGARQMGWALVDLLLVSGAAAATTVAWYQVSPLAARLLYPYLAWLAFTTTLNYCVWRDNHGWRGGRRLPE
# Method in brief: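 Radioligand displacement on human colonic cell membranes, 1 h incubation; bound radioactivity by filtration and scintillation counting. Primary screen in duplicate at 25 uM single concentration, actives followed up in concentration series; loss of binding versus DMSO.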
# [17] = biological target: Peroxisome proliferator-activated receptor gamma (Homo sapiens) (UniProt P37231); test: ATG_hPPARg_XSP1: Attagene TRANS-FACTORIAL Multi-Species (XSP1) HepG2 Assay for human Peroxisome Proliferator-activated Receptor gamma (PPARg) (AID 2283800)
# UniProt P37231, sequence (P37231 whole entry, looked up, the tested form may be a part): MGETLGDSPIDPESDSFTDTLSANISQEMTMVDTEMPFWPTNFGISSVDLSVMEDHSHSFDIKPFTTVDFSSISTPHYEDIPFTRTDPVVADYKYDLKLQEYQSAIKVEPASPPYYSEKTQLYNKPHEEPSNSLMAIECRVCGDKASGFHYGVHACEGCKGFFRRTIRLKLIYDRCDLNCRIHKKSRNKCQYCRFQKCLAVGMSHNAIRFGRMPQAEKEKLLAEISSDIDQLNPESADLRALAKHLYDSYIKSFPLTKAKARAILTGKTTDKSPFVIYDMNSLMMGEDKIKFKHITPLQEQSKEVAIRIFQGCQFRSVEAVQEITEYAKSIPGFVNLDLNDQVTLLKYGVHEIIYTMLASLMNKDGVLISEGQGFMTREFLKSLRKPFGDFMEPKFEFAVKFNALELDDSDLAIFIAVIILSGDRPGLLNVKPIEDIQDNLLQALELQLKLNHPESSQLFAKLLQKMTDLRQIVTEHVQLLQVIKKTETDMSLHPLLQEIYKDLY
# Method in brief: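 HepG2 cells transiently transfected with GAL4-UAS reporter units carrying chimeric NR-Gal4 proteins; 3 nM 6-alpha-fluorotestosterone present. After 24 h dosing, reporter mRNA quantified by RT-PCR and capillary electrophoresis; gain of signal relative to DMSO.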
# [18] = CCTE_Shafer_MEA_dev_LDH: CCTE's Lactate Dehydrogenase Assay for Cytotoxicity in the Neural Network Formation Assay, Shafer Lab (AID 2284068)
# Method in brief: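 Primary rat cortical neurons were plated on PEI/laminin MEA plates and exposed from day 0 for twelve days, with compound renewed at DIV 5 and 9. Cytotoxicity was determined by spectrophotometric LDH assay relative to DMSO.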
# [19] = biological target: human IkappaB Kinase alpha (IKKa), CHUK (gene 1147) (UniProt O15111); test: NVS_ENZ_hIKKa: NovaScreen (NVS) Enzymatic Assay for human IkappaB Kinase alpha (IKKa) (AID 2283167)
# UniProt O15111, sequence (O15111 whole entry, looked up): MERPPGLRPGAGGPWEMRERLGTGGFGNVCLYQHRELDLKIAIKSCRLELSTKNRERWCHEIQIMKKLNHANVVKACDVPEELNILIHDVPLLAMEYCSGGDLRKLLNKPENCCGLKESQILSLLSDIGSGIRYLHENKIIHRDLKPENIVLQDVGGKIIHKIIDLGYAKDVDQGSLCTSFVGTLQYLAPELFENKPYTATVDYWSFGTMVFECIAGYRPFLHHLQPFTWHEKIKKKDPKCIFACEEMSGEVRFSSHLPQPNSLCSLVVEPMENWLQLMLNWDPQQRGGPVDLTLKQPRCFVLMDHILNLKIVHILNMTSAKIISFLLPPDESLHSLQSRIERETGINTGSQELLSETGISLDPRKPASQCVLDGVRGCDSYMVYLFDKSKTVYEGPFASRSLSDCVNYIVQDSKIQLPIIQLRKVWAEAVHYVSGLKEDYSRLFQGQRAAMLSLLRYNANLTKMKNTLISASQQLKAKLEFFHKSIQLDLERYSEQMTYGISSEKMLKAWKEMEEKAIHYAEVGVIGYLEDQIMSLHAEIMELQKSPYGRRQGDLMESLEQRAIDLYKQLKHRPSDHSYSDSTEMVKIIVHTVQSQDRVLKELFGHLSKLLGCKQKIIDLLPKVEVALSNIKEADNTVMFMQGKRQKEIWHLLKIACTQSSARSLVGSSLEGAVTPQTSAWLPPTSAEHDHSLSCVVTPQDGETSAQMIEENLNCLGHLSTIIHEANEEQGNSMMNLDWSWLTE
# Method in brief: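 Cell-free recombinant human IKKa with fluorescent substrate, product separated by electrophoretic mobility shift; read 1 hour after dosing. Primary screen duplicate at 25 uM, actives then concentration-response up to 50 uM; loss of signal relative to DMSO.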
# [20] = read-out: Cytochrome P450 (CYP2B6), CYP2B6 (gene 1555); test: LTEA_HepaRG_CYP2B6: Life Technologies and Expression Analysis (LTEA) Assay for Cytochrome P450 (CYP2B6) using HepaRG (AID 2283481; active means hit-call score of the fitted dose curve at least 0.9, where 1 is the maximum; inactive means score below 0.9); conditions: actives raise or lower the signal; mRNA level, 48 h
# Method in brief: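 Using 48 h treatment of HepaRG cells in serum-free induction medium, concentrations spanned half-log steps from 100 uM in 0.5% DMSO vehicle. CYP2B6 mRNA induction or loss is scored by qRT-PCR against DMSO.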
# [21] = biological target: human CYP2C9, CYP2C9 (gene 1559) (UniProt P11712); test: NVS_ADME_hCYP2C9: NovaScreen (NVS) CYP450-related Enzyme Activity (ADME) Assay for human CYP2C9 (AID 2283108)
# UniProt P11712, sequence (P11712 whole entry, looked up): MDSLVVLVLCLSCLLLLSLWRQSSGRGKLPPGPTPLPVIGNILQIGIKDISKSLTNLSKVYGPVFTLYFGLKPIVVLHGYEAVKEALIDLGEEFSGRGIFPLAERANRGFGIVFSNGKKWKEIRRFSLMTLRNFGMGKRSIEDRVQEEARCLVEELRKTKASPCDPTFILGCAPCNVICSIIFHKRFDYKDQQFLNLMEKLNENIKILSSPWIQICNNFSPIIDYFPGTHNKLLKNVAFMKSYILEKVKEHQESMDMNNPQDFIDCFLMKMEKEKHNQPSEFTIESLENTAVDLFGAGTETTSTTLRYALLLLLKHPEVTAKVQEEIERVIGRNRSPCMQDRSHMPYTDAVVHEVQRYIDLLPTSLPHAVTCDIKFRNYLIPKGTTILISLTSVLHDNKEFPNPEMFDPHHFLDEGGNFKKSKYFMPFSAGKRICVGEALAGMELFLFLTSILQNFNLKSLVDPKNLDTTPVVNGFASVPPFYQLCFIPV
# Method in brief: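 Recombinant human CYP2C9 expressed in SF9 cells, fluorogenic substrate, fluorescence read 0.75 h after dosing. Chemicals first run in duplicate at 10 uM, with actives followed in concentration series; loss of signal versus acetonitrile baseline.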
# [22] = biological target: human Acetylcholinesterase (AChE), ACHE (gene 43) (UniProt P22303); test: NVS_ENZ_hAChE: NovaScreen (NVS) Enzymatic Assay for human Acetylcholinesterase (AChE) (AID 2283129)
# UniProt P22303, sequence (P22303 whole entry, looked up): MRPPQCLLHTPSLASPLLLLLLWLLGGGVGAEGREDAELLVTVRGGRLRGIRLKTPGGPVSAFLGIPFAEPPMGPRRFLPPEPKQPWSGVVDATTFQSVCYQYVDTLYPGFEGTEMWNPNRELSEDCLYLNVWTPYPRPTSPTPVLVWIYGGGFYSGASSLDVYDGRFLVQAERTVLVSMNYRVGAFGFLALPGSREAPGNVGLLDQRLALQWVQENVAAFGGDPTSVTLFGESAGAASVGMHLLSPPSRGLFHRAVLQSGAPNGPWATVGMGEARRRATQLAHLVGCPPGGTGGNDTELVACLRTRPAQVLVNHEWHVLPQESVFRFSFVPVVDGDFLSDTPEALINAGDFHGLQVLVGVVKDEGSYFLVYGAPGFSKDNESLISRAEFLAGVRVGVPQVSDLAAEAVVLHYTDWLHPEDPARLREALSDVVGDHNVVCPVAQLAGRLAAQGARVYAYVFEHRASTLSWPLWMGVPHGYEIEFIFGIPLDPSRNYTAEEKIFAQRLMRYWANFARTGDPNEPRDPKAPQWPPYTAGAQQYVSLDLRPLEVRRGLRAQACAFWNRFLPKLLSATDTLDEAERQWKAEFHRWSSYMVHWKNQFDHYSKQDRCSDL
# Method in brief: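 Cell-free colorimetric enzyme-activity assay; compounds read 0.33 hour after dosing, loss of signal vs DMSO baseline. Primary screen in duplicate at 25 uM single concentration, with active compounds retested in concentration series.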
# [23] = biological target: human Tyrosine Protein Kinase Receptor Tie-2 (Tie2), TEK (gene 7010) (UniProt Q02763); test: NVS_ENZ_hTie2: NovaScreen (NVS) Enzymatic Assay for human Tyrosine Protein Kinase Receptor Tie-2 (Tie2) (AID 2283225)
# Method in brief: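 Recombinant human Tie2 kinase activity was read cell-free by fluorescence with electrophoretic mobility shift, 1 hour after dosing. The screen used 25 uM in duplicate, then concentration-response up to 50 uM. Signal loss was scored against DMSO.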
structure (smiles),measurement,setting,value
CCC(C)(C)c1ccc(O)c(C(C)(C)CC)c1,AC50,[1],active: 13.5 µM
same,outcome,[2],inactive
same,AC50,[3],active: 39.6 µM
CCc1cccc(C)c1N(C(=O)CCl)C(C)COC (configuration not stated),outcome,[4],inactive
same,AC50,"CD69, CD69 (gene 969)",active: 12.8 µM
same,outcome,[5],inactive
same,outcome,CYP2C8 (gene 1558),inactive
same,outcome,"MYC, MYC (gene 4609)",inactive
same,outcome,[6],inactive
same,outcome,[7],inactive
CC(C)Nc1ccc(Nc2ccccc2)cc1,AC50,[8],active: 30.4 µM
O=C1C2CC=CCC2C(=O)N1SC(Cl)(Cl)Cl (configuration not stated),AC50,[9],active: 11.2 µM
same,AC50,[10],active: 12.8 µM
same,AC50,[11],active: 13.2 µM
same,outcome,[1],inactive
same,AC50,[12],active: 1.35 µM
same,AC50,[13],active: 11.4 µM
same,outcome,[14],inactive
same,AC50,[15],active: 15.3 µM
CCCCOC(=O)c1ccccc1C(=O)OCc1ccccc1,AC50,[16],active: 15.1 µM
same,AC50,[17],active: 15.1 µM
same,outcome,[18],inactive
CC(C)O.CC(C)O.OCCN(CCO)CCO.OCCN(CCO)CCO.[Ti],outcome,[19],inactive
same,AC50,[20],active: 14.1 µM
COP(=S)(OC)Oc1ccc([N+](=O)[O-])c(C)c1,AC50,[21],active: 1.96 µM
CC#C[C@]1(O)CC[C@H]2[C@@H]3CCC4=CC(=O)CCC4=C3[C@@H](c3ccc(N(C)C)cc3)C[C@@]21C,AC50,[22],active: 29.9 µM
O=C1NC(=O)C(c2ccccc2)(c2ccccc2)N1,outcome,[23],inactive
